# Among all 310,000 compounds or so, about 14,000 (4.5%) showed an effect of 50% or more. The effect is printed as a negative number. Some of the results follow.
# Molecular target: human ether-à-go-go-related gene (hERG) potassium channel (human, UniProt Q12809)
# Test: primary screen, population patch clamp on CHO cells stably expressing hERG
# 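Also: peak tail current of the secondary pulse compared with the same well before compound.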
# human ether-à-go-go-related gene (hERG) potassium channel, sequence (Q12809 whole entry, looked up): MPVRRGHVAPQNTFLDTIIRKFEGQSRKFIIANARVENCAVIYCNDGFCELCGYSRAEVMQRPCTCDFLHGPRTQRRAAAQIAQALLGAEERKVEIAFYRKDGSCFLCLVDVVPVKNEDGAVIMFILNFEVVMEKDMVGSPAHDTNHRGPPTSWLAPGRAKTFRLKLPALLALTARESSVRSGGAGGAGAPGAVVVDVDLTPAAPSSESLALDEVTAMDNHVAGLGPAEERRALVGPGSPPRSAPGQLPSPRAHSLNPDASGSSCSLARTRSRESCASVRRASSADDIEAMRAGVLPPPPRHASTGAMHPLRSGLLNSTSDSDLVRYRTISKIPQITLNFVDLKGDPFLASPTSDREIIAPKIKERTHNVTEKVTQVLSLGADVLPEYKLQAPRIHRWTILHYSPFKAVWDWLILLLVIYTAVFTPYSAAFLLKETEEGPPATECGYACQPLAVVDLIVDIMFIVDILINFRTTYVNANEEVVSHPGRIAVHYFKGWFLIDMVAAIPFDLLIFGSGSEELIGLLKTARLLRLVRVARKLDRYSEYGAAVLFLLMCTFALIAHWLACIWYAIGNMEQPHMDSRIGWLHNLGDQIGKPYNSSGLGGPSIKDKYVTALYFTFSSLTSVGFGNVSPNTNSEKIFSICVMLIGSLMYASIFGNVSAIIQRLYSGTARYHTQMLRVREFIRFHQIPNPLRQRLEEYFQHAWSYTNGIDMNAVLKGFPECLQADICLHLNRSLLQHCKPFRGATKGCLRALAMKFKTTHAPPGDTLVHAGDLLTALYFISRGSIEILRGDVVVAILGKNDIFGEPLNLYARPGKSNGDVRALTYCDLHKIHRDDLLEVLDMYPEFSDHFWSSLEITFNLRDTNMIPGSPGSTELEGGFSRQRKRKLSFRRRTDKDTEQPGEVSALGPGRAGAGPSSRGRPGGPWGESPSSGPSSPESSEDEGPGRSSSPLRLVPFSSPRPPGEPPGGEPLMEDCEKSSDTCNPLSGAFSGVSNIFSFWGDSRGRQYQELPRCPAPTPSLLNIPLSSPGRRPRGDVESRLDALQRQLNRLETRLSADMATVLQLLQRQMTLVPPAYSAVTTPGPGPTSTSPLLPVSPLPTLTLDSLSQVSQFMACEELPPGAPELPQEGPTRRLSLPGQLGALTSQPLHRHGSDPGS
row,Compound,"hERG current change (%, negative = inhibition) at 10uM [%]"
1,CN(CCCS(=O)(=O)[O-])c1ccc(/C=C/c2ccc3ccccc3[n+]2C)cc1,19.6
2,CC(=O)Nc1ccc(C(=O)CSc2nnnn2C2CCCC2)cc1,0.223
3,Cl.c1ccc(Cn2nnnc2CN2CCCC2)cc1,2.31
4,Cc1cc(C)nc(N2CCC(C(=O)Nc3ccc4c(c3)OCCO4)CC2)n1,17.5
5,O=C(CSc1ccc2nnc(CCNC(=O)c3ccc(F)cc3)n2n1)NCc1ccco1,12.9
6,CCc1nc2ccccc2c(C(=O)Nc2ccc(C)cc2)c1C,22.3
7,CCCCC(=O)Nc1nnc(SCC(=O)NC2CCCC2)s1,17.2
8,COc1ccc(OC)c(S(=O)(=O)NCc2cn3c(C)csc3n2)c1,0.79
9,CC1(c2ccccc2Cl)NC(=O)N(CC(=O)NCCC2=CCCCC2)C1=O (stereo not shown),6.16
10,COc1ccc(NC(=O)c2ccccc2NC(=O)CSc2ccccc2)cc1,22.7
11,CC(=O)Nc1ccc(S(=O)(=O)N(C)CC(=O)OCC(=O)Nc2cccnc2Cl)cc1,5.81
12,COc1ccc(NS(=O)(=O)c2ccc(NS(=O)(=O)c3cccs3)cc2)cc1,11.8
13,COc1cccc(N2CCN(C(=O)c3ccc4nc(N5CCC(C)CC5)sc4c3)CC2)c1,-10.9
14,CC(C)C(=O)Nc1cccc(C(=O)Nc2ccc3c(c2)OCO3)c1,-2.67
15,NC(N)=N/N=C/c1ccc(N2CCOCC2)cc1.O=[N+]([O-])O,6.58
16,CCC(Oc1cc(Cl)ccc1Cl)C(=O)N1CCCN(C)CC1 (stereo not shown),1.73
17,Cc1ccc(N(C(=O)c2csnn2)C(C(=O)NCc2ccccc2)c2ccccn2)cc1 (stereo not shown),-15.2
18,CC(C)C(C(=O)O)N1C(=O)/C(=C/C=C/c2ccco2)SC1=S (stereo not shown),15.4
19,CC(C)CCN1CCN(Cc2ccc(Sc3nncn3C)o2)CC1CCO (stereo not shown),7.49
20,O=C(CN1C(=O)CCC1=O)Nc1nc(-c2ccccn2)cs1,19.8
21,CC1CCN(CCOc2ccc(C(=O)c3ccccc3)cc2)CC1.O=C(O)C(=O)O,-47.5
22,COC(=O)Cn1cc(/C=C2\C(=O)NC(=O)N(c3ccc(OC)cc3)C2=O)c2ccccc21,12.5
23,CC1CCCC(C)N1/N=C/c1cccc(Br)c1 (stereo not shown),-18.5
24,O=C(COC(=O)c1cccc(Br)c1)Nc1ccc2[nH]c(=O)[nH]c2c1,18.3
25,CN(C)c1cccc(C(=O)N/N=C/c2ccoc2)c1,-8.11
26,COC(=O)c1ccc(NC(=O)Cn2cnc3c(nnn3-c3cccc(OC)c3)c2=O)cc1,3.08
27,CC(Sc1ccsc1[N+](=O)[O-])C(=O)NCc1ccccc1 (stereo not shown),20.1
28,CCOc1ccc(NC(=O)CN2CCN(CC(=O)Nc3cc(OC)cc(OC)c3)CC2)cc1,-74.9

row,Compound,"hERG current change (%, negative = inhibition) at 10uM [%]"
1,CCn1c(NC(C)=O)nc2ccccc21,11.9
2,COc1ccc(S(=O)(=O)/N=C2/NC(=O)/C(=C\c3cc(OC)c(OC)cc3[N+](=O)[O-])S2)cc1,15.2
3,CC(=O)Nc1ccc(OC(=O)c2cc3cc(Br)cc(Br)c3oc2=O)cc1,2.2
4,Cc1ccc(NC(=O)CCSCCC(=O)Nc2ccc(C)c(C)c2)cc1C,-10
5,CCN(CCNC(=O)C1CCCN(Cc2nc(-c3ccc(OC)cc3)oc2C)C1)c1ccccc1 (stereo not shown),-28.1
6,O=C(Nc1ncccc1O)C1CCN(S(=O)(=O)c2ccc3ccccc3c2)CC1,-0.129
7,CCc1ccc(CNC(=O)c2cc3c(C)nc4ccccc4c3o2)cc1,-11.5
8,CCC(=O)Nc1ccc(C(=O)NCCCn2ccnc2)cc1,22.8
9,CC(=O)c1cccc(NC(=O)NNC(=O)CCC(=O)Nc2ccc(C)c(C)c2)c1,49.5
10,Cc1cc(N=Cc2cc(Br)ccc2O)no1,-4.77
11,Cc1nnc(SCc2cccc([N+](=O)[O-])c2)[nH]c1=O,-16.5
12,CCCn1c(N)c(N(CCOC)C(=O)CCC2CCCCC2)c(=O)[nH]c1=O,6.04
13,CC(C)n1cc(C(=O)N2CCCC(Nc3ccc(F)c(F)c3)C2)cn1 (stereo not shown),10.3
14,CC1CCN(C(=O)CSc2nc(N)c(NC(=O)c3ccccc3)c(=O)[nH]2)CC1,6.82
15,Oc1ccc(O)c(Cc2nc3ccccc3s2)c1,12.1
16,COc1ccc(N(CC(=O)Nc2cc(C)on2)S(=O)(=O)c2cc(C)ccc2C)cc1,-21.7
17,CCCCOC(=O)c1ccc(NC(=O)c2cc(Cl)ccc2OC)cc1,2.36
18,CC(C)c1ccc(NC(=O)CSc2nc3ccsc3c(=O)n2CCC(=O)O)cc1,-5.01
19,Cc1ccc(NC(=O)c2ccccc2N(C)S(C)(=O)=O)cc1C,21.6
20,O=C1CSc2ccccc2N1Cc1ccccc1F,-55.8
21,COc1ccc(-c2nc(N/N=C(\C)c3ccc(O)cc3)c3ccccc3n2)cc1,19
22,O=C(CN1CCC(C(=O)c2ccc(F)cc2)CC1)Nc1ccccc1Cl,-20.5
23,CC1Nc2ncnc(N3CCOCC3)c2N(Cc2ccc(Cl)cc2)C1=O.O=C(O)C(F)(F)F (stereo not shown),-9.85
24,Cc1ccc(-c2nnc(C)c(N3CCCC3)n2)cc1,13
25,CCC(C)(C)n1nnnc1C(c1ccc(O)c(OC)c1)N1CCc2ccccc2C1.Cl (stereo not shown),-19.7
26,O=C(Nc1ccc2c(c1)OCO2)c1cc2n(n1)C(C(F)(F)F)CC(c1ccccc1)N2 (stereo not shown),2.64
27,Cc1nn(C(C)C(=O)NC(C)CCc2ccccc2)c(=O)c2cc3occc3n12 (stereo not shown),-13.7

# — publication PMC4336329 (PLoS ONE, 2015)
